Source: publication PMC12820563
This is one part of the list. The list includes weakly bound sequences.

biological target: T1, MBP-FoxP3dN (UniProt Q99JB6); experiment: PD-seq (MBP pull-down with sequencing); settings: 20 mM Tris-HCl pH 7.5, 100 mM NaCl, 1.5 mM MgCl2, 0.4 uM protein, 0.1 uM dsDNA library, 30 min, room temperature, amylose pull-down; high values mean tight binding; double strand, one strand shown
T1 sequence: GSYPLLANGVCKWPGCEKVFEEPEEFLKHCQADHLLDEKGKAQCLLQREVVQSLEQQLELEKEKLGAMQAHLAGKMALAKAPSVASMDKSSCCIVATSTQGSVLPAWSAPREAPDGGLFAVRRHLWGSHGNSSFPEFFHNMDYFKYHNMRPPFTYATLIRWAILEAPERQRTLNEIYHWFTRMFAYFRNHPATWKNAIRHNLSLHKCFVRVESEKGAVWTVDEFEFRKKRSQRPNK

| Sequence | binding signal (RPM ratio (pull-down/input)) |
| --- | --- |
| GATGATTGTTCTCCCAGCTGATGAATTGCGCGTGTCGAGTAAACAAATTTTCCTAATCTTTCTGTTCAAGCGCCATCTAC | 4.88 |
| GATGATTGTTCTCCCAGCTGATGAATTCTTTCTATCGAGTAAACAAATTTTCCTAATCTTTCTGTTCAAGCGCCATCTAC | 0.24 |
| GATGATTGTTCTCCCAGCTGATGAATTTTCCTATTCGAGTAAACAAATTTTCCTAATCTTTCTGTTCAAGCGCCATCTAC | 0.286 |
| GATGATTGTTCTCCCAGCTGATGAATTATGAGGGTCGAGTAAACAAATTTTCCTAATCTTTCTGTTCAAGCGCCATCTAC | 0.401 |
| GATGATTGTTCTCCCAGCTGATGAATTCGCACAATCGAGTAAACAAATTTTCCTAATCTTTCTGTTCAAGCGCCATCTAC | 0.383 |
| GATGATTGTTCTCCCAGCTGATGAATTGTGCTGGTCGAGTAAACAAATTTTCCTAATCTTTCTGTTCAAGCGCCATCTAC | 1.35 |
| GATGATTGTTCTCCCAGCTGATGAATTGATTGGCTCGAGTAAACAAATTTTCCTAATCTTTCTGTTCAAGCGCCATCTAC | 1.19 |
| GATGATTGTTCTCCCAGCTGATGAATTGGTGGGCTCGAGTAAACAAATTTTCCTAATCTTTCTGTTCAAGCGCCATCTAC | 0.487 |
| GATGATTGTTCTCCCAGCTGATGAATTTATTGGCTCGAGTAAACAAATTTTCCTAATCTTTCTGTTCAAGCGCCATCTAC | 4.71 |
| GATGATTGTTCTCCCAGCTGATGAATTTTACGTGTCGAGTAAACAAATTTTCCTAATCTTTCTGTTCAAGCGCCATCTAC | 0.455 |
| GATGATTGTTCTCCCAGCTGATGAATTGGTATTCTCGAGTAAACAAATTTTCCTAATCTTTCTGTTCAAGCGCCATCTAC | 1.76 |
| GATGATTGTTCTCCCAGCTGATGAATTGACTCACTCGAGTAAACAAATTTTCCTAATCTTTCTGTTCAAGCGCCATCTAC | 0.407 |
| GATGATTGTTCTCCCAGCTGATGAATTAATTTCGTCGAGTAAACAAATTTTCCTAATCTTTCTGTTCAAGCGCCATCTAC | 0.808 |
| GATGATTGTTCTCCCAGCTGATGAATTTGCTCTTTCGAGTAAACAAATTTTCCTAATCTTTCTGTTCAAGCGCCATCTAC | 0.605 |
| GATGATTGTTCTCCCAGCTGATGAATTGCTCGGGTCGAGTAAACAAATTTTCCTAATCTTTCTGTTCAAGCGCCATCTAC | 0.34 |
| GATGATTGTTCTCCCAGCTGATGAATTGTTTACTTCGAGTAAACAAATTTTCCTAATCTTTCTGTTCAAGCGCCATCTAC | 7.35 |
| GATGATTGTTCTCCCAGCTGATGAATTAGACCACTCGAGTAAACAAATTTTCCTAATCTTTCTGTTCAAGCGCCATCTAC | 0.405 |
| GATGATTGTTCTCCCAGCTGATGAATTGTTTAGATCGAGTAAACAAATTTTCCTAATCTTTCTGTTCAAGCGCCATCTAC | 5.2 |
| GATGATTGTTCTCCCAGCTGATGAATTTGTTCCCTCGAGTAAACAAATTTTCCTAATCTTTCTGTTCAAGCGCCATCTAC | 3.28 |
| GATGATTGTTCTCCCAGCTGATGAATTTATCCTTTCGAGTAAACAAATTTTCCTAATCTTTCTGTTCAAGCGCCATCTAC | 0.717 |
| GATGATTGTTCTCCCAGCTGATGAATTGTGGAAGTCGAGTAAACAAATTTTCCTAATCTTTCTGTTCAAGCGCCATCTAC | 0.274 |

| Sequence | binding signal (RPM ratio (pull-down/input)) |
| --- | --- |
| GATGATTGTTCTCCCAGCTGATGAATTTGCTTAATCGAGTAAACAAATTTTCCTAATCTTTCTGTTCAAGCGCCATCTAC | 1.39 |
| GATGATTGTTCTCCCAGCTGATGAATTAGCACTGTCGAGTAAACAAATTTTCCTAATCTTTCTGTTCAAGCGCCATCTAC | 0.423 |
| GATGATTGTTCTCCCAGCTGATGAATTTTTCAGGTCGAGTAAACAAATTTTCCTAATCTTTCTGTTCAAGCGCCATCTAC | 0.14 |
| GATGATTGTTCTCCCAGCTGATGAATTGTCGGAATCGAGTAAACAAATTTTCCTAATCTTTCTGTTCAAGCGCCATCTAC | 0.241 |
| GATGATTGTTCTCCCAGCTGATGAATTCCGGACTTCGAGTAAACAAATTTTCCTAATCTTTCTGTTCAAGCGCCATCTAC | 0.296 |
| GATGATTGTTCTCCCAGCTGATGAATTGGGCCAATCGAGTAAACAAATTTTCCTAATCTTTCTGTTCAAGCGCCATCTAC | 0.613 |
| GATGATTGTTCTCCCAGCTGATGAATTTCCAAGGTCGAGTAAACAAATTTTCCTAATCTTTCTGTTCAAGCGCCATCTAC | 0.17 |
| GATGATTGTTCTCCCAGCTGATGAATTGCGCATTTCGAGTAAACAAATTTTCCTAATCTTTCTGTTCAAGCGCCATCTAC | 8.05 |
| GATGATTGTTCTCCCAGCTGATGAATTACACGAATCGAGTAAACAAATTTTCCTAATCTTTCTGTTCAAGCGCCATCTAC | 0.344 |
| GATGATTGTTCTCCCAGCTGATGAATTTAGTTGGTCGAGTAAACAAATTTTCCTAATCTTTCTGTTCAAGCGCCATCTAC | 3.61 |
| GATGATTGTTCTCCCAGCTGATGAATTGTACTAGTCGAGTAAACAAATTTTCCTAATCTTTCTGTTCAAGCGCCATCTAC | 0.443 |
| GATGATTGTTCTCCCAGCTGATGAATTACGACAGTCGAGTAAACAAATTTTCCTAATCTTTCTGTTCAAGCGCCATCTAC | 0.518 |
| GATGATTGTTCTCCCAGCTGATGAATTTATAGAGTCGAGTAAACAAATTTTCCTAATCTTTCTGTTCAAGCGCCATCTAC | 0.467 |
| GATGATTGTTCTCCCAGCTGATGAATTCTATCCCTCGAGTAAACAAATTTTCCTAATCTTTCTGTTCAAGCGCCATCTAC | 0.424 |
| GATGATTGTTCTCCCAGCTGATGAATTGTACGTGTCGAGTAAACAAATTTTCCTAATCTTTCTGTTCAAGCGCCATCTAC | 0.647 |
| GATGATTGTTCTCCCAGCTGATGAATTACCGTGGTCGAGTAAACAAATTTTCCTAATCTTTCTGTTCAAGCGCCATCTAC | 0.409 |
| GATGATTGTTCTCCCAGCTGATGAATTCTACATCTCGAGTAAACAAATTTTCCTAATCTTTCTGTTCAAGCGCCATCTAC | 0.508 |
| GATGATTGTTCTCCCAGCTGATGAATTGTAGGTTTCGAGTAAACAAATTTTCCTAATCTTTCTGTTCAAGCGCCATCTAC | 0.853 |
| GATGATTGTTCTCCCAGCTGATGAATTCATCAGATCGAGTAAACAAATTTTCCTAATCTTTCTGTTCAAGCGCCATCTAC | 0.221 |
| GATGATTGTTCTCCCAGCTGATGAATTTGTGGCGTCGAGTAAACAAATTTTCCTAATCTTTCTGTTCAAGCGCCATCTAC | 4.33 |
| GATGATTGTTCTCCCAGCTGATGAATTTGCCAGTTCGAGTAAACAAATTTTCCTAATCTTTCTGTTCAAGCGCCATCTAC | 0.654 |

| Sequence | binding signal (RPM ratio (pull-down/input)) |
| --- | --- |
| GATGATTGTTCTCCCAGCTGATGAATTAATCACATCGAGTAAACAAATTTTCCTAATCTTTCTGTTCAAGCGCCATCTAC | 0.821 |
| GATGATTGTTCTCCCAGCTGATGAATTAGTGAACTCGAGTAAACAAATTTTCCTAATCTTTCTGTTCAAGCGCCATCTAC | 0.464 |
| GATGATTGTTCTCCCAGCTGATGAATTCTACACGTCGAGTAAACAAATTTTCCTAATCTTTCTGTTCAAGCGCCATCTAC | 0.352 |
| GATGATTGTTCTCCCAGCTGATGAATTAGTATGGTCGAGTAAACAAATTTTCCTAATCTTTCTGTTCAAGCGCCATCTAC | 2.48 |
| GATGATTGTTCTCCCAGCTGATGAATTGCAGAGGTCGAGTAAACAAATTTTCCTAATCTTTCTGTTCAAGCGCCATCTAC | 0.465 |
| GATGATTGTTCTCCCAGCTGATGAATTTGCAAGTTCGAGTAAACAAATTTTCCTAATCTTTCTGTTCAAGCGCCATCTAC | 1.06 |
| GATGATTGTTCTCCCAGCTGATGAATTAATTGGGTCGAGTAAACAAATTTTCCTAATCTTTCTGTTCAAGCGCCATCTAC | 1.88 |
| GATGATTGTTCTCCCAGCTGATGAATTGTAAATATCGAGTAAACAAATTTTCCTAATCTTTCTGTTCAAGCGCCATCTAC | 2.18 |
| GATGATTGTTCTCCCAGCTGATGAATTAGCATAATCGAGTAAACAAATTTTCCTAATCTTTCTGTTCAAGCGCCATCTAC | 0.643 |
| GATGATTGTTCTCCCAGCTGATGAATTACGTGAATCGAGTAAACAAATTTTCCTAATCTTTCTGTTCAAGCGCCATCTAC | 0.355 |
| GATGATTGTTCTCCCAGCTGATGAATTAGGTATATCGAGTAAACAAATTTTCCTAATCTTTCTGTTCAAGCGCCATCTAC | 1.37 |
| GATGATTGTTCTCCCAGCTGATGAATTTCACGCTTCGAGTAAACAAATTTTCCTAATCTTTCTGTTCAAGCGCCATCTAC | 0.501 |
| GATGATTGTTCTCCCAGCTGATGAATTGAGTACATCGAGTAAACAAATTTTCCTAATCTTTCTGTTCAAGCGCCATCTAC | 0.551 |
| GATGATTGTTCTCCCAGCTGATGAATTGGCATCCTCGAGTAAACAAATTTTCCTAATCTTTCTGTTCAAGCGCCATCTAC | 4.28 |
| GATGATTGTTCTCCCAGCTGATGAATTTCTGCACTCGAGTAAACAAATTTTCCTAATCTTTCTGTTCAAGCGCCATCTAC | 0.475 |
| GATGATTGTTCTCCCAGCTGATGAATTGTTATTTTCGAGTAAACAAATTTTCCTAATCTTTCTGTTCAAGCGCCATCTAC | 4.89 |
| GATGATTGTTCTCCCAGCTGATGAATTCTTAGTGTCGAGTAAACAAATTTTCCTAATCTTTCTGTTCAAGCGCCATCTAC | 0.401 |
| GATGATTGTTCTCCCAGCTGATGAATTGTCGTCATCGAGTAAACAAATTTTCCTAATCTTTCTGTTCAAGCGCCATCTAC | 0.938 |
| GATGATTGTTCTCCCAGCTGATGAATTTCCTTGCTCGAGTAAACAAATTTTCCTAATCTTTCTGTTCAAGCGCCATCTAC | 0.296 |
| GATGATTGTTCTCCCAGCTGATGAATTGACTTACTCGAGTAAACAAATTTTCCTAATCTTTCTGTTCAAGCGCCATCTAC | 0.734 |
| GATGATTGTTCTCCCAGCTGATGAATTGGGGACGTCGAGTAAACAAATTTTCCTAATCTTTCTGTTCAAGCGCCATCTAC | 0.307 |
